Data as given in the supplement of paper PMC8728848.
The list shows a part of the results.

Experiments:
Experiment in all cases: glycan array binding signal (z-score within array); higher = stronger binding
Settings in all cases: glycan notation: IUPAC condensed, linker removed
[1] = target: GlcNAc(b1-3)Gal(b1-3)GalNAc
Summary of the method: (§1)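 Arrays were curated from the Consortium for Functional Glycomics database, 3228 in total, and kept only where the protein sequence was available. Binding is expressed as a within-array Z-score. This score was averaged across arrays of the same protein sequence at different concentrations or buffers and across linkers, and negative values can be read as non-binding.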

GlcNAc(b1-3)Gal(b1-4)Glc = target: GlcNAc(b1-3)Gal(b1-4)Glc
Summary of the method: as §1

[2] = target: GlcNAc(b1-3)Gal(b1-4)GlcNAc
Summary of the method: as §1

[3] = target: GlcNAc(b1-3)Gal(b1-4)GlcNAc(b1-2)Man(a1-3)[GlcNAc(b1-3)Gal(b1-4)GlcNAc(b1-2)Man(a1-6)]Man(b1-4)GlcNAc(b1-4)GlcNAc
Summary of the method: as §1

[4] = target: GlcNAc(b1-3)Gal(b1-4)GlcNAc(b1-2)Man(a1-3)[GlcNAc(b1-3)Gal(b1-4)GlcNAc(b1-2)Man(a1-6)]Man(b1-4)GlcNAc(b1-4)[Fuc(a1-6)]GlcNAc
Summary of the method: as §1

[5] = target: GlcNAc(b1-3)Gal(b1-4)GlcNAc(b1-2)[GlcNAc(b1-3)Gal(b1-4)GlcNAc(b1-6)]Man(a1-6)[GlcNAc(b1-3)Gal(b1-4)GlcNAc(b1-2)Man(a1-3)]Man(b1-4)GlcNAc(b1-4)GlcNAc
Summary of the method: as §1

[6] = target: GlcNAc(b1-3)Gal(b1-4)GlcNAc(b1-3)Gal(b1-4)GlcNAc
Summary of the method: as §1

[7] = target: GlcNAc(b1-3)Gal(b1-4)GlcNAc(b1-3)Gal(b1-4)GlcNAc(b1-2)Man(a1-3)[GlcNAc(b1-3)Gal(b1-4)GlcNAc(b1-3)Gal(b1-4)GlcNAc(b1-2)Man(a1-6)]Man(b1-4)GlcNAc(b1-4)GlcNAc
Summary of the method: as §1

[8] = target: GlcNAc(b1-3)Gal(b1-4)GlcNAc(b1-3)Gal(b1-4)GlcNAc(b1-2)Man(a1-3)[GlcNAc(b1-3)Gal(b1-4)GlcNAc(b1-3)Gal(b1-4)GlcNAc(b1-2)Man(a1-6)]Man(b1-4)GlcNAc(b1-4)[Fuc(a1-6)]GlcNAc
Summary of the method: as §1

[9] = target: GlcNAc(b1-3)Gal(b1-4)GlcNAc(b1-3)Gal(b1-4)GlcNAc(b1-2)[GlcNAc(b1-3)Gal(b1-4)GlcNAc(b1-3)Gal(b1-4)GlcNAc(b1-6)]Man(a1-6)[GlcNAc(b1-3)Gal(b1-4)GlcNAc(b1-3)Gal(b1-4)GlcNAc(b1-2)Man(a1-3)]Man(b1-4)GlcNAc(b1-4)[Fuc(a1-6)]GlcNAc
Summary of the method: as §1

[10] = target: GlcNAc(b1-3)Gal(b1-4)GlcNAc(b1-3)Gal(b1-4)GlcNAc(b1-3)Gal(b1-4)GlcNAc(b1-2)Man(a1-3)[GlcNAc(b1-3)Gal(b1-4)GlcNAc(b1-3)Gal(b1-4)GlcNAc(b1-3)Gal(b1-4)GlcNAc(b1-2)Man(a1-6)]Man(b1-4)GlcNAc(b1-4)GlcNAc
Summary of the method: as §1

[11] = target: GlcNAc(b1-3)Gal(b1-4)GlcNAc(b1-3)Gal(b1-4)GlcNAc(b1-3)Gal(b1-4)GlcNAc(b1-2)Man(a1-3)[GlcNAc(b1-3)Gal(b1-4)GlcNAc(b1-3)Gal(b1-4)GlcNAc(b1-3)Gal(b1-4)GlcNAc(b1-2)Man(a1-6)]Man(b1-4)GlcNAc(b1-4)[Fuc(a1-6)]GlcNAc
Summary of the method: as §1

[12] = target: GlcNAc(b1-3)Gal(b1-4)GlcNAc(b1-3)Gal(b1-4)GlcNAc(b1-3)Gal(b1-4)GlcNAc(b1-2)[GlcNAc(b1-3)Gal(b1-4)GlcNAc(b1-3)Gal(b1-4)GlcNAc(b1-3)Gal(b1-4)GlcNAc(b1-6)]Man(a1-6)[GlcNAc(b1-3)Gal(b1-4)GlcNAc(b1-3)Gal(b1-4)GlcNAc(b1-3)Gal(b1-4)GlcNAc(b1-2)Man(a1-3)]Man(b1-4)GlcNAc(b1-4)[Fuc(a1-6)]GlcNAc
Summary of the method: as §1

[13] = target: GlcNAc(b1-3)Gal(b1-4)GlcNAc(b1-3)Gal(b1-4)GlcNAc(b1-3)Gal(b1-4)GlcNAc(b1-3)Gal(b1-4)GlcNAc(b1-2)Man(a1-3)[GlcNAc(b1-3)Gal(b1-4)GlcNAc(b1-3)Gal(b1-4)GlcNAc(b1-3)Gal(b1-4)GlcNAc(b1-3)Gal(b1-4)GlcNAc(b1-2)Man(a1-6)]Man(b1-4)GlcNAc(b1-4)GlcNAc
Summary of the method: as §1

[14] = target: GlcNAc(b1-3)Gal(b1-4)GlcNAc(b1-3)Gal(b1-4)GlcNAc(b1-3)Gal(b1-4)GlcNAc(b1-3)Gal(b1-4)GlcNAc(b1-2)Man(a1-3)[GlcNAc(b1-3)Gal(b1-4)GlcNAc(b1-3)Gal(b1-4)GlcNAc(b1-3)Gal(b1-4)GlcNAc(b1-3)Gal(b1-4)GlcNAc(b1-2)Man(a1-6)]Man(b1-4)GlcNAc(b1-4)[Fuc(a1-6)]GlcNAc
Summary of the method: as §1

[15] = target: GlcNAc(b1-3)Gal(b1-4)GlcNAc(b1-3)Gal(b1-4)GlcNAc(b1-3)Gal(b1-4)GlcNAc(b1-3)Gal(b1-4)GlcNAc(b1-2)[GlcNAc(b1-3)Gal(b1-4)GlcNAc(b1-3)Gal(b1-4)GlcNAc(b1-3)Gal(b1-4)GlcNAc(b1-3)Gal(b1-4)GlcNAc(b1-6)]Man(a1-6)[GlcNAc(b1-3)Gal(b1-4)GlcNAc(b1-3)Gal(b1-4)GlcNAc(b1-3)Gal(b1-4)GlcNAc(b1-3)Gal(b1-4)GlcNAc(b1-2)Man(a1-3)]Man(b1-4)GlcNAc(b1-4)[Fuc(a1-6)]GlcNAc
Summary of the method: as §1

[16] = target: GlcNAc(b1-3)Gal(b1-4)GlcNAc(b1-3)Gal(b1-4)GlcNAc(b1-3)GalNAc
Summary of the method: as §1

[17] = target: GlcNAc(b1-3)Gal(b1-4)GlcNAc(b1-3)GalNAc
Summary of the method: as §1

[18] = target: GlcNAc(b1-3)Gal(b1-4)GlcNAc(b1-3)[GlcNAc(b1-3)Gal(b1-4)GlcNAc(b1-3)]GalNAc
Summary of the method: as §1

[19] = target: GlcNAc(b1-3)Gal(b1-4)GlcNAc(b1-6)[Gal(b1-3)]GalNAc
Summary of the method: as §1

[20] = target: GlcNAc(b1-3)Gal(b1-4)GlcNAc(b1-6)[GlcNAc(b1-3)Gal(b1-3)]GalNAc
Summary of the method: as §1

[21] = target: GlcNAc(b1-3)Gal(b1-4)GlcNAc(b1-6)[GlcNAc(b1-3)]Gal(b1-4)GlcNAc
Summary of the method: as §1

GlcNAc(b1-3)GalNAc = target: GlcNAc(b1-3)GalNAc
Summary of the method: as §1

GlcNAc(b1-3)Man = target: GlcNAc(b1-3)Man
Summary of the method: as §1

[22] = target: GlcNAc(b1-3)[GlcNAc(b1-4)][GlcNAc(b1-6)]GlcNAc
Summary of the method: as §1

[23] = target: GlcNAc(b1-3)[GlcNAc(b1-6)]Gal(b1-4)GlcNAc
Summary of the method: as §1

[24] = target: GlcNAc(b1-3)[GlcNAc(b1-6)]GalNAc
Summary of the method: as §1

[25] = target: GlcNAc(b1-4)Gal(b1-4)GlcNAc
Summary of the method: as §1

GlcNAc(b1-4)GlcNAc = target: GlcNAc(b1-4)GlcNAc
Summary of the method: as §1

[26] = target: GlcNAc(b1-4)GlcNAc(b1-4)GlcNAc
Summary of the method: as §1

[27] = target: GlcNAc(b1-4)GlcNAc(b1-4)GlcNAc(b1-4)GlcNAc(b1-4)GlcNAc
Summary of the method: as §1

[28] = target: GlcNAc(b1-4)GlcNAc(b1-4)GlcNAc(b1-4)GlcNAc(b1-4)GlcNAc(b1-4)GlcNAc
Summary of the method: as §1

[29] = target: GlcNAc(b1-4)[GlcNAc(b1-6)]GalNAc
Summary of the method: as §1

[30] = target: GlcNAc(b1-6)Gal(b1-4)GlcNAc
Summary of the method: as §1

GlcNAc(b1-6)GalNAc = target: GlcNAc(b1-6)GalNAc
Summary of the method: as §1

[31] = target: GlcNAc6S(b1-3)Gal(b1-4)GlcNAc
Summary of the method: as §1

Kdn(a2-3)Gal(b1-3)GalNAc = target: Kdn(a2-3)Gal(b1-3)GalNAc
Summary of the method: as §1

B1: DC-ASGPR L+GEE (Homo sapiens) (protein)
chain: MTRTYENFQYLENKVKVQGFKNGPLPLQSLLQRLRSGPCHLLLSLGLGLLLLVIICVVGFQNSKFQRDLVTLRTDFSNFTSNTVAEIQALTSQGSSLEETIASLKAEVEGFKQERQAGVSELQEHTTQKAHLGHCPHCPSVCVPVHSEMLLRVQQLVQDLKKLTCQVATLNNNGEEASTEGTCCPVNWVEHQDSCYWFSHSGMSWAEAEKYCQLKNAHLVVINSREEQNFVQKYLGSAYTWMGLSDPEGAWKWVDGTDYATGFQNWKPGQPDDWQGHGLGGGEDCAHFHPDGRWNDDVCQRPYHWVCEAGLGQTSQESH
In the case of B1, the “glycan array binding signal (z-score)” value [1] is reported as -0.27, the “glycan array binding signal (z-score)” value (GlcNAc(b1-3)Gal(b1-4)Glc) is reported as -0.031 and the “glycan array binding signal (z-score)” value [2] is reported as -0.217. The “glycan array binding signal (z-score)” value [3] was -0.024, the “glycan array binding signal (z-score)” value [4] was 0.045 and the “glycan array binding signal (z-score)” value [5] was 0.114. For the same binder, the “glycan array binding signal (z-score)” value [6] was -0.3, the “glycan array binding signal (z-score)” value [7] was 0.53 and the “glycan array binding signal (z-score)” value [8] was -0.152. The “glycan array binding signal (z-score)” value [9] was 0.194, the “glycan array binding signal (z-score)” value [10] was -0.234 and the “glycan array binding signal (z-score)” value [11] was -0.283. The “glycan array binding signal (z-score)” value [12] was -0.052, the “glycan array binding signal (z-score)” value [13] was -0.085 and the “glycan array binding signal (z-score)” value [14] was 0.512. The “glycan array binding signal (z-score)” value [15] was 0.566, the “glycan array binding signal (z-score)” value [16] was 0.01 and the “glycan array binding signal (z-score)” value [17] was -0.202. The “glycan array binding signal (z-score)” value [18] was -0.4, the “glycan array binding signal (z-score)” value [19] was -0.411 and the “glycan array binding signal (z-score)” value [20] was 0.098. The “glycan array binding signal (z-score)” value [21] was -0.159, the “glycan array binding signal (z-score)” value (GlcNAc(b1-3)GalNAc) was -0.439 and the “glycan array binding signal (z-score)” value (GlcNAc(b1-3)Man) was -0.363. For the same binder, the “glycan array binding signal (z-score)” value [22] was -0.818, the “glycan array binding signal (z-score)” value [23] was -0.85 and the “glycan array binding signal (z-score)” value [24] was -0.432. For the same binder, the “glycan array binding signal (z-score)” value [25] was -0.38, the “glycan array binding signal (z-score)” value (GlcNAc(b1-4)GlcNAc) was -0.468 and the “glycan array binding signal (z-score)” value [26] was -0.556. The “glycan array binding signal (z-score)” value [27] was 0.2, the “glycan array binding signal (z-score)” value [28] was -0.834 and the “glycan array binding signal (z-score)” value [29] was -0.471. For the same binder, the “glycan array binding signal (z-score)” value [30] was -0.162, the “glycan array binding signal (z-score)” value (GlcNAc(b1-6)GalNAc) was 3.71 and the “glycan array binding signal (z-score)” value [31] was -0.225. For the same binder, the “glycan array binding signal (z-score)” value (Kdn(a2-3)Gal(b1-3)GalNAc) was -0.402.
